# From paper PMC10762069
# Protein sequences, listed by entry. Tags and fused reporters are not part of them. Lines headed by an entry give the natural chain unless they say otherwise; changes in a name come on top. Chains listed by the source or under a name are the forms on record and can include a tag or linker.
# UniProt O35129: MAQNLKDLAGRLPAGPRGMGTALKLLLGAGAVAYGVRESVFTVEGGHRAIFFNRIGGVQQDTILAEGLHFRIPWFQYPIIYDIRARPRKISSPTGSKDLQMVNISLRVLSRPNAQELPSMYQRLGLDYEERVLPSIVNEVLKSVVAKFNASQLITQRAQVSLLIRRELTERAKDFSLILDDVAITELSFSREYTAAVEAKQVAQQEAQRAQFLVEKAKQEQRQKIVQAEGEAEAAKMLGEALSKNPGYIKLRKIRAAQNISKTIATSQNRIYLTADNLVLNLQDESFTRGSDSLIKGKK
# mouse Phb2 delete 19-49 (pcDNA3.1-HA-C) (O35129, form named): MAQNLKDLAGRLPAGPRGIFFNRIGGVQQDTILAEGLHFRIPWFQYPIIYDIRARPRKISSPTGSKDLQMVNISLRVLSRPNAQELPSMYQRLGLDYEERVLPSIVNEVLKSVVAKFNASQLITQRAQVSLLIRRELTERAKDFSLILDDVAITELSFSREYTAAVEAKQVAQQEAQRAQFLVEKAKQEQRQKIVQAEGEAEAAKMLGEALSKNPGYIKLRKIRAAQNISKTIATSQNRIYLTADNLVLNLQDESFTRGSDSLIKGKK
# mouse Phb2 delete 150-174 (pcDNA3.1-HA-C) (O35129, form named): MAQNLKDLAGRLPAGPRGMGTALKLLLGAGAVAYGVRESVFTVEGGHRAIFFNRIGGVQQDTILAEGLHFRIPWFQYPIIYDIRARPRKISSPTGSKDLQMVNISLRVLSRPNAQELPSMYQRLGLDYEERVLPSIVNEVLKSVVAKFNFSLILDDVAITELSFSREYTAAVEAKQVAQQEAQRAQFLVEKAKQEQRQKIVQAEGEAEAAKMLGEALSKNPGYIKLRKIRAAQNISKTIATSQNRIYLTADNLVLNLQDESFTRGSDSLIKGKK
# Results are given in words; binding and its absence hold for the method and conditions named. In cells and extracts the contact can be indirect. Some entries that bind do so weakly or less than the wild type. Sequences can lack the tags named with a protein.
# T1: Myc-tagged GCA (mouse Gca pcDNA3.1-MYC-C) (mouse) (UniProt Q8VC88)
# T1 sequence: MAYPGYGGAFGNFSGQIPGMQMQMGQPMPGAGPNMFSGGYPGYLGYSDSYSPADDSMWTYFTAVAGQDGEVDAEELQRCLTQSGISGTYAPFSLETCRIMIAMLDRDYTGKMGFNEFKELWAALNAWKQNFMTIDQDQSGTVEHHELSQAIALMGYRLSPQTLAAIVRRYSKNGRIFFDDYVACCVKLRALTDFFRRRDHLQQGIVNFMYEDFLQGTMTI
# T2: mouse Gca delete 1-50 (pcDNA3.1-MYC-C) (mouse) (UniProt Q8VC88)
# T2 sequence: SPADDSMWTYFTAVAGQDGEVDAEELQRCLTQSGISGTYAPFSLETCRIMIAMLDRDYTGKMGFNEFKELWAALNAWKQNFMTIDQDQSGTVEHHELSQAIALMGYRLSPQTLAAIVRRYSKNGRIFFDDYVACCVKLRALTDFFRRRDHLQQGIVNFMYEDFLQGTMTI
# T3: mouse Gca delete 158-193 (pcDNA3.1-MYC-C) (mouse) (UniProt Q8VC88)
# T3 sequence: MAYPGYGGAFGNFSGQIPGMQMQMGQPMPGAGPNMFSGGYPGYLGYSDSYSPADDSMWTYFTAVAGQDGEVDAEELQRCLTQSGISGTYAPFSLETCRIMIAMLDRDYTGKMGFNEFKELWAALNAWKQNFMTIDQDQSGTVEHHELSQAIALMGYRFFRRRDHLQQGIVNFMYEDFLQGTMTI
# T4: mouse Gca delete 92-127 (pcDNA3.1-MYC-C) (mouse) (UniProt Q8VC88)
# T4 sequence: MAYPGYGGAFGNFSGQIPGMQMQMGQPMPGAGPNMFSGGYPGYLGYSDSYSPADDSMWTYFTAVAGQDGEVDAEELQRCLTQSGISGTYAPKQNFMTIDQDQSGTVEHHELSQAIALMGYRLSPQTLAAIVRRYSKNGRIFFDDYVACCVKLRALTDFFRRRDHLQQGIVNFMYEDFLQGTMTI
# Experiments:
# [1] = target: T1, Myc-tagged GCA (mouse Gca pcDNA3.1-MYC-C) (mouse); assay: co-IP; Myc-GCA and HA-PHB2 co-transfected in HEK 293T; IP with anti-Myc antibody, Western blot with anti-HA; protein A/G beads, 4 °C overnight
# [2] = target: T1, Myc-tagged GCA (mouse Gca pcDNA3.1-MYC-C) (mouse); assay: co-IP; IP analysis of deletion mutants of GCA with full-length PHB2 and of deletion mutants of PHB2 with full-length GCA; which tag was precipitated is not stated
# [3] = target: T2, mouse Gca delete 1-50 (pcDNA3.1-MYC-C) (mouse); assay: as above
# [4] = target: T3, mouse Gca delete 158-193 (pcDNA3.1-MYC-C) (mouse); assay: as above
# [5] = target: T4, mouse Gca delete 92-127 (pcDNA3.1-MYC-C) (mouse); assay: as above
# [6] = target: HA-tagged PHB2 (mouse Phb2 pcDNA3.1-HA) (mouse) (UniProt O35129); assay: co-IP; Myc-GCA and HA-PHB2 co-transfected in HEK 293T; IP with anti-HA antibody, Western blot with anti-Myc; protein A/G beads, 4 °C overnight
Molecule,binding [2],other results
mouse Phb2 delete 1-19 (pcDNA3.1-HA-C) (from UniProt O35129 20-299) (domain or fragment),binds,–
mouse Phb2 delete 19-49 (pcDNA3.1-HA-C) (from UniProt O35129 1-299),binds,–
mouse Phb2 delete 150-174 (pcDNA3.1-HA-C) (from UniProt O35129 1-299),binds,–
"Myc-tagged GCA (mouse Gca pcDNA3.1-MYC-C) (protein, UniProt Q8VC88 1-220) MAYPGYGGAFGNFSGQIPGMQMQMGQPMPGAGPNMFSGGYPGYLGYSDSYSPADDSMWTYFTAVAGQDGEVDAEELQRCLTQSGISGTYAPFSLETCRIMIAMLDRDYTGKMGFNEFKELWAALNAWKQNFMTIDQDQSGTVEHHELSQAIALMGYRLSPQTLAAIVRRYSKNGRIFFDDYVACCVKLRALTDFFRRRDHLQQGIVNFMYEDFLQGTMTI",–,binding [6]: binds

# Further lines, with some results ahead:
binding [2],Molecule,other results
binds,HA-tagged PHB2 (mouse Phb2 pcDNA3.1-HA) (from UniProt O35129 1-299),binding [1]: binds; binding [3]: no binding; binding [4]: no binding; binding [5]: no binding
binds,mouse Phb2 delete 174-299 (pcDNA3.1-HA-C) (from UniProt O35129 1-173) (domain or fragment),–
